Experimental data reported in the supplement of paper PMC12645437, “Orthogonal IMiD-Degron Pairs Induce Selective Protein Degradation in Cells” (ACS Chemical Biology, 2025).
The list shows a part of the results.

B1: Q9UKT9 (peptide)
chain: FDCEICGHCFTQKGNLLRHIKL
B2: Q9UKT9 (peptide)
chain: FACNQCGAQFTQKGNLLRHIKL
B3: Q9UKT9 (peptide)
chain: LRCEICGFLCTQKGNLLRHIKL
B4: Q9UKT9 (peptide)
chain: LDCNQCGFACTQKGNLLRHIKL
B5: Q9UKT9 (peptide)
chain: FGCNQCGAIFTQKGNLLRHIKL
B6: Q9UKT9 (peptide)
chain: FKCNVCGALFTQKGNLLRHIKL
B7: Q9UKT9 (peptide)
chain: FQCDQCGAVFTQKGNLLRHIKL
B8: Q9UKT9 (peptide)
chain: FCCNQCGHLFTQKGNLLRHIKL
B9: Q9UKT9 (peptide)
chain: FICDICGAYFTQKGNLLRHIKL
B10: Q9UKT9 (peptide)
chain: LGCEICGFMCTQKGNLLRHIKL
B11: Q9UKT9 (peptide)
chain: FNCNQCGHIFTQKGNLLRHIKL
B12: Q9UKT9 (peptide)
chain: FFCNVCGAHFTQKGNLLRHIKL
B13: Q9UKT9 (peptide)
chain: FMCNQCGAIFTQKGNLLRHIKL
B14: Q9UKT9 (peptide)
chain: FACEICGRQFTQKGNLLRHIKL
B15: Q9UKT9 (peptide)
chain: FDCEICGRMFTQKGNLLRHIKL
B16: Q9UKT9 (peptide)
chain: FFCEQCGADFTQKGNLLRHIKL
B17: Q9UKT9 (peptide)
chain: FNCDICGAAFTQKGNLLRHIKL
B18: Q9UKT9 (peptide)
chain: FVCNQCGRGFTQKGNLLRHIKL
B19: Q9UKT9 (peptide)
chain: FHCDQCGACFTQKGNLLRHIKL
B20: Q9UKT9 (peptide)
chain: FHCSVCGHIFTQKGNLLRHIKL
B21: Q9UKT9 (peptide)
chain: LECNQCGFKCTQKGNLLRHIKL
B22: Q9UKT9 (peptide)
chain: LQCNQCGFWCTQKGNLLRHIKL
B23: Q9UKT9 (peptide)
chain: FSCEICGHLFTQKGNLLRHIKL
B24: Q9UKT9 (peptide)
chain: FNCNQCGHPFTQKGNLLRHIKL
B25: Q9UKT9 (peptide)
chain: FSCNICGAYFTQKGNLLRHIKL
B26: Q9UKT9 (peptide)
chain: FWCNVCGACFTQKGNLLRHIKL
B27: Q9UKT9 (peptide)
chain: FICEICGHMFTQKGNLLRHIKL
B28: Q9UKT9 (peptide)
chain: FQCNICGALFTQKGNLLRHIKL
B29: Q9UKT9 (peptide)
chain: LQCPICGFRCTQKGNLLRHIKL
B30: Q9UKT9 (peptide)
chain: FNCNQCGRRFTQKGNLLRHIKL
B31: Q9UKT9 (peptide)
chain: FCCEICGHSFTQKGNLLRHIKL
B32: Q9UKT9 (peptide)
chain: FSCEICGHMFTQKGNLLRHIKL
B33: Q9UKT9 (peptide)
chain: LFCEICGFRCTQKGNLLRHIKL
B34: Q9UKT9 (peptide)
chain: FTCSVCGHQFTQKGNLLRHIKL
B35: Q9UKT9 (peptide)
chain: LSCPICGFTCTQKGNLLRHIKL
B36: Q9UKT9 (peptide)
chain: LECPICGFSCTQKGNLLRHIKL
B37: Q9UKT9 (peptide)
chain: LKCNQCGFNCTQKGNLLRHIKL
B38: Q9UKT9 (peptide)
chain: FMCPICGAPFTQKGNLLRHIKL
B39: Q9UKT9 (peptide)
chain: FLCNQCGRWFTQKGNLLRHIKL
B40: Q9UKT9 (peptide)
chain: FRCDICGAEFTQKGNLLRHIKL
B41: Q9UKT9 (peptide)
chain: FDCPICGHWFTQKGNLLRHIKL
B42: Q9UKT9 (peptide)
chain: FDCPICGRCFTQKGNLLRHIKL
B43: Q9UKT9 (peptide)
chain: FKCPQCGARFTQKGNLLRHIKL
B44: Q9UKT9 (peptide)
chain: FWCNQCGHIFTQKGNLLRHIKL
B45: Q9UKT9 (peptide)
chain: FFCPVCGASFTQKGNLLRHIKL
B46: Q9UKT9 (peptide)
chain: FKCSVCGHHFTQKGNLLRHIKL
B47: Q9UKT9 (peptide)
chain: LQCPICGFSCTQKGNLLRHIKL
B48: Q9UKT9 (peptide)
chain: FYCPQCGAYFTQKGNLLRHIKL
B49: Q9UKT9 (peptide)
chain: FHCEVCGAVFTQKGNLLRHIKL
B50: Q9UKT9 (peptide)
chain: FACPICGAEFTQKGNLLRHIKL

What follows are sequences tested against no compound (DMSO) (assay: log2 fold change of degron read counts, EGFP-low vs EGFP+ sorted cells; higher = lower degron-EGFP level without compound (poor expression or instability)). Conditions: compound: DMSO control; 18 h.
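Also: jurkat cells carrying a lentiviral library of mutant zinc finger degrons fused to EGFP plus mCherry, mCherry+ cells FACS sorted, degron abundance counted by next-generation sequencing.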

| Sequence | log2 fold change of degron read counts |
| --- | --- |
| B1 | -0.532 |
| B2 | -1.1 |
| B3 | 0.452 |
| B4 | 0.573 |
| B5 | 0.602 |
| B6 | -0.354 |
| B7 | -1.21 |
| B8 | 0.489 |
| B9 | -0.485 |
| B10 | 1.05 |
| B11 | 0.808 |
| B12 | 0.058 |
| B13 | 0.661 |
| B14 | -0.929 |
| B15 | -0.438 |
| B16 | -1.26 |
| B17 | -0.671 |
| B18 | -1.59 |
| B19 | -1.87 |
| B20 | 0.314 |
| B21 | -0.961 |
| B22 | 0.791 |
| B23 | -0.425 |
| B24 | -0.831 |
| B25 | 1.01 |

| Sequence | log2 fold change of degron read counts |
| --- | --- |
| B26 | 0.366 |
| B27 | -1.87 |
| B28 | -0.835 |
| B29 | 0.0683 |
| B30 | 0.241 |
| B31 | -1.5 |
| B32 | -1.26 |
| B33 | 0.58 |
| B34 | -1.58 |
| B35 | -0.147 |
| B36 | 0.119 |
| B37 | 1.3 |
| B38 | 0.604 |
| B39 | 0.928 |
| B40 | -2.11 |
| B41 | 0.237 |
| B42 | -0.362 |
| B43 | -0.361 |
| B44 | 1.99 |
| B45 | 0.293 |
| B46 | -0.0877 |
| B47 | 0.126 |
| B48 | 0.58 |
| B49 | -1.44 |
| B50 | -0.363 |
